In all, about 33,000 sequences were measured (“E-score (-0.5 to 0.5)”: median about -0.01, highest 2% from about 0.26 on). Some of the results follow.
Each sequence was assayed against Ste12 (UniProt P13574) (assay: PBM E-score (8-mer binding enrichment) (E-score (-0.5 to 0.5)); higher = stronger / more preferred TF binding; most listed sequences are background and not binding sites). Conditions: protein concentration: 200 nM; construct: GST-DNA-binding domain.
Procedure: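 Universal 'all 10-mer' protein binding microarrays (Agilent AMADID 015681) probed with GST-tagged S. cerevisiae TFs (full-length or DBD) made by in vitro transcription/translation (PURExpress), about 100-200 nM. Bound TF was detected with fluorescent anti-GST. Each ungapped 8-mer (which stands for itself and its reverse complement) is scored by the PBM enrichment score (E-score), a modified Wilcoxon-Mann-Whitney statistic from -0.5 to +0.5, computed with the Universal PBM Analysis Suite. Scale: above 0.35 generally sequence-specific binding.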
With CTCACGAA the “PBM E-score” value was -0.114.
For GACAGCAC, the “PBM E-score” value was -0.014.
For GACAGAAA, the “PBM E-score” value was 0.168.
With AGCGGGTC the “PBM E-score” value was -0.133.
CAAAGAAG was tested, and the “PBM E-score” value was 0.112.
For CCATGGAG, the “PBM E-score” value was -0.182.
In the case of AAGAACAG, the “PBM E-score” value is reported as 0.0799.
For AGTTGTAC, the “PBM E-score” value was 0.0416.
With CGAGAGTC the “PBM E-score” value was -0.246.
CGCAGCAG was tested, and the “PBM E-score” value was -0.102.
With GTGCCGAA the “PBM E-score” value was -0.0314.
AGGCAGGA was tested, and the “PBM E-score” value was -0.219.
For CGGCTTAC, the “PBM E-score” value was 0.139.
For AAGGAAAT, the “PBM E-score” value was 0.0925.
With ATCTGTCC the “PBM E-score” value was -0.135.
With AAAGTATG the “PBM E-score” value was 0.141.
ACGTGGTA was tested, and the “PBM E-score” value was -0.0589.
CAAAAAAG was tested, and the “PBM E-score” value was 0.159.
For CTCGCAAC, the “PBM E-score” value was 0.00396.
With GCCTACGC the “PBM E-score” value was -0.157.
In the case of AATAATAG, the “PBM E-score” value is reported as 0.0434.
CATCGCGC was tested, and the “PBM E-score” value was 0.0539.
In the case of GATACCAA, the “PBM E-score” value is reported as 0.16.
With CTTGACGA the “PBM E-score” value was -0.0679.
With ACATTGCC the “PBM E-score” value was -0.107.
With CGGGAGAG the “PBM E-score” value was -0.208.
In the case of TCGTTTCA, the “PBM E-score” value is reported as 0.467.
CGAGTCGA was tested, and the “PBM E-score” value was 0.0672.
For GCCTAGAC, the “PBM E-score” value was -0.14.
For CAGTATAA, the “PBM E-score” value was 0.222.
For AAACAGTC, the “PBM E-score” value was -0.038.
With AGCGAATC the “PBM E-score” value was -0.0395.
For GATACTCC, the “PBM E-score” value was -0.143.
For ATGTAGGG, the “PBM E-score” value was -0.119.
In the case of ACACTTAA, the “PBM E-score” value is reported as 0.127.
In the case of AACCCCGT, the “PBM E-score” value is reported as 0.122.
In the case of ACTGGATA, the “PBM E-score” value is reported as 0.0614.
For CTTGCTAC, the “PBM E-score” value was -0.0644.
With ACGTGGTC the “PBM E-score” value was -0.14.
AGTTAATG was tested, and the “PBM E-score” value was 0.19.
In the case of TCTGCTAA, the “PBM E-score” value is reported as -0.0489.
In the case of ATTAATCC, the “PBM E-score” value is reported as 0.0655.
In the case of CCCACGCA, the “PBM E-score” value is reported as -0.0214.
TACAATGA was tested, and the “PBM E-score” value was 0.172.
GGTGAGGA was tested, and the “PBM E-score” value was -0.00014.
With CTAAATAA the “PBM E-score” value was 0.0819.
In the case of CCGCGACA, the “PBM E-score” value is reported as 0.125.
For ATTACCCC, the “PBM E-score” value was 0.0911.
For GCAATCAA, the “PBM E-score” value was 0.0398.
For TAGCAAGA, the “PBM E-score” value was 0.0303.
In the case of ATTTGGAC, the “PBM E-score” value is reported as 0.0307.
For GCTACTAC, the “PBM E-score” value was 0.0413.
For CGGTCATA, the “PBM E-score” value was 0.057.
For AAGCACGT, the “PBM E-score” value was -0.0189.
CTATTCCA was tested, and the “PBM E-score” value was 0.0935.
With TCGGACGA the “PBM E-score” value was -0.0726.
In the case of ACTAAAAT, the “PBM E-score” value is reported as 0.27.
In the case of AGCAACTG, the “PBM E-score” value is reported as -0.149.
With AACTCGTG the “PBM E-score” value was 0.144.
In the case of AAACTGTT, the “PBM E-score” value is reported as 0.162.
In the case of AACATTCT, the “PBM E-score” value is reported as -0.0595.
In the case of CTGGACAC, the “PBM E-score” value is reported as -0.21.
With CAGAAGAA the “PBM E-score” value was -0.0592.
For AATCCAGA, the “PBM E-score” value was 0.187.
For ATGCGGCG, the “PBM E-score” value was -0.031.
GTCCTGAA was tested, and the “PBM E-score” value was -0.0225.
For AGCCCGGG, the “PBM E-score” value was -0.112.
GCGGGGTA was tested, and the “PBM E-score” value was 0.143.
For AATCGCCC, the “PBM E-score” value was -0.23.
In the case of AGGATCAT, the “PBM E-score” value is reported as -0.11.
GAATGCAC was tested, and the “PBM E-score” value was 0.0659.
ACCCGCTC was tested, and the “PBM E-score” value was -0.09.
In the case of ATGGATCG, the “PBM E-score” value is reported as -0.059.
With GCTGCTCA the “PBM E-score” value was -0.123.
In the case of CACAAGAG, the “PBM E-score” value is reported as 0.0242.
In the case of CGCAAAGA, the “PBM E-score” value is reported as 0.141.
ATTAATGC was tested, and the “PBM E-score” value was 0.161.
For GAAGCCAA, the “PBM E-score” value was 0.0219.
For AGAACTAC, the “PBM E-score” value was 0.0756.
In the case of CACCGCTG, the “PBM E-score” value is reported as -0.0676.
For CGACAAGA, the “PBM E-score” value was 0.00247.
CTCACTCA was tested, and the “PBM E-score” value was 0.11.
In the case of TGCGCGCA, the “PBM E-score” value is reported as 0.151.
ATCCTTCC was tested, and the “PBM E-score” value was -0.303.
In the case of ATGGCTCG, the “PBM E-score” value is reported as 0.0164.
With CAGCATGC the “PBM E-score” value was -0.0492.
GGCACTCA was tested, and the “PBM E-score” value was -0.142.
With ATAGGGAA the “PBM E-score” value was -0.037.
CCTAGCAC was tested, and the “PBM E-score” value was 0.0623.
For AATGACAC, the “PBM E-score” value was 0.0352.
With GGTAGGAC the “PBM E-score” value was -0.169.
AGGTCACG was tested, and the “PBM E-score” value was -0.132.
In the case of ATATTAGC, the “PBM E-score” value is reported as 0.0763.
In the case of ATAGCGGC, the “PBM E-score” value is reported as -0.0116.
For AATGGCAA, the “PBM E-score” value was 0.129.
AGACGCTA was tested, and the “PBM E-score” value was -0.171.
In the case of CCCGCCTC, the “PBM E-score” value is reported as 0.0992.
CCCGGAAG was tested, and the “PBM E-score” value was 0.0329.
CATAGAGA was tested, and the “PBM E-score” value was -0.0324.
For CCGGACAG, the “PBM E-score” value was 0.0528.
With ACCACCGC the “PBM E-score” value was -0.093.
For CAATTACA, the “PBM E-score” value was 0.146.
With CTGTACAC the “PBM E-score” value was 0.0482.
With ACGTTCAC the “PBM E-score” value was -0.214.
With ACTATAGC the “PBM E-score” value was -0.0742.
For CGGAAATC, the “PBM E-score” value was 0.0175.
With CCAGATGG the “PBM E-score” value was -0.0216.
In the case of CCATCTAC, the “PBM E-score” value is reported as -0.125.
For CTCGACGC, the “PBM E-score” value was 0.0498.
TAAGATTA was tested, and the “PBM E-score” value was 0.0386.
CCCTTATC was tested, and the “PBM E-score” value was -0.129.
With TAGGTCGA the “PBM E-score” value was -0.00032.
For GACAACGA, the “PBM E-score” value was -0.133.
ATCAATAC was tested, and the “PBM E-score” value was -0.00457.
With GAGATGCC the “PBM E-score” value was -0.115.
In the case of ATAGTGGA, the “PBM E-score” value is reported as -0.155.
With CATCGTGA the “PBM E-score” value was -0.0559.
In the case of CGTTCGTC, the “PBM E-score” value is reported as -0.0659.
CTGTGAAC was tested, and the “PBM E-score” value was -0.0759.
In the case of CTTTAGCC, the “PBM E-score” value is reported as -0.029.
GGCCCCTA was tested, and the “PBM E-score” value was -0.0347.
ACTCACTA was tested, and the “PBM E-score” value was 0.0226.
In the case of ATCGGCAG, the “PBM E-score” value is reported as -0.0528.
GTAGGCTA was tested, and the “PBM E-score” value was -0.298.
With ATACAACA the “PBM E-score” value was 0.0533.
In the case of ACAAACGG, the “PBM E-score” value is reported as 0.116.
For AGAGCTCC, the “PBM E-score” value was -0.148.
With AAGTGGGT the “PBM E-score” value was 0.08.
For ACCAACGT, the “PBM E-score” value was -0.0825.
With CGTGAAGC the “PBM E-score” value was -0.228.
In the case of TGAGGAAA, the “PBM E-score” value is reported as 0.0852.
For AAGCGCGT, the “PBM E-score” value was 0.00023.
With AAGAGTAG the “PBM E-score” value was -0.0605.
In the case of ACATTCGC, the “PBM E-score” value is reported as -0.00727.
In the case of CCGGACCC, the “PBM E-score” value is reported as 0.0177.
In the case of CAGTTAAG, the “PBM E-score” value is reported as 0.041.
With ACGGCTAC the “PBM E-score” value was -0.102.
AGTTTCAG was tested, and the “PBM E-score” value was 0.464.
ACCGGTCT was tested, and the “PBM E-score” value was -0.154.
In the case of AAGGACGC, the “PBM E-score” value is reported as -0.199.
In the case of ATGAAAAA, the “PBM E-score” value is reported as 0.305.
ATCTACAA was tested, and the “PBM E-score” value was -0.00908.
In the case of CACCATGG, the “PBM E-score” value is reported as -0.171.
For GTAATCTA, the “PBM E-score” value was 0.118.
In the case of ACGCGCTC, the “PBM E-score” value is reported as -0.0293.
TGCTATAA was tested, and the “PBM E-score” value was -0.0901.
In the case of AATAAATT, the “PBM E-score” value is reported as 0.191.
For ACATGCGC, the “PBM E-score” value was 0.0319.
AAGGGGAC was tested, and the “PBM E-score” value was -0.199.
With CACATGCA the “PBM E-score” value was -0.0548.
AAGTGGAC was tested, and the “PBM E-score” value was -0.011.
For ATAGTGAG, the “PBM E-score” value was 0.059.
In the case of CCCTGTCG, the “PBM E-score” value is reported as -0.0419.
For AGCCTAAA, the “PBM E-score” value was -0.0349.
For ATCAGGTA, the “PBM E-score” value was 0.144.
GTAAGTAA was tested, and the “PBM E-score” value was 0.0614.
CGAGTAGC was tested, and the “PBM E-score” value was -0.0814.
For GTAGATCA, the “PBM E-score” value was 0.023.
With GAGATAAC the “PBM E-score” value was 0.0702.
For ATAGAGAC, the “PBM E-score” value was -0.025.
With ATACAGAC the “PBM E-score” value was 0.0198.
With TACCTGGA the “PBM E-score” value was -0.0387.
With AGCTTCAC the “PBM E-score” value was -0.269.
CTTATTCC was tested, and the “PBM E-score” value was -0.0244.
In the case of CGGCGACC, the “PBM E-score” value is reported as -0.0757.
In the case of ACTTAACC, the “PBM E-score” value is reported as 0.00417.
In the case of GAGCTCCC, the “PBM E-score” value is reported as -0.0992.
In the case of ATCAGGAG, the “PBM E-score” value is reported as 0.0409.
In the case of AGCGCCAC, the “PBM E-score” value is reported as -0.0709.
AAAAGATC was tested, and the “PBM E-score” value was 0.108.
For TGAAGTAA, the “PBM E-score” value was 0.124.
GGTCGTAA was tested, and the “PBM E-score” value was -0.0195.
